In all, about 33,000 sequences were measured (“E-score (-0.5 to 0.5)”: median about -0.04, highest 2% from about 0.36 on). The list shows a part of the results.
The sequences below were run against T1, Hmlalpha2 (UniProt P0CY09) (assay: PBM E-score (8-mer binding enrichment) (E-score (-0.5 to 0.5)); higher = stronger / more preferred TF binding; most listed sequences are background and not binding sites). Settings: protein concentration: 200 nM; construct: GST-full length.
T1 sequence: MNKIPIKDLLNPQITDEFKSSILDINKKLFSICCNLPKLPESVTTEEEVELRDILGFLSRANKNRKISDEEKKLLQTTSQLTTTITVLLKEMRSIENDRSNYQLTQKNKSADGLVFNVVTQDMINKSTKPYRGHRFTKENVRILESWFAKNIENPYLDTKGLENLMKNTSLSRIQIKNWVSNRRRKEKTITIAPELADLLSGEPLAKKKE
Method in brief: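 Yeast transcription factors, full-length or as DNA-binding domains, were expressed with a GST tag using PURExpress in vitro transcription/translation. At about 100-200 nM they were applied to universal all-10-mer Agilent arrays, double-stranded by primer extension on fresh or once-stripped slides. Fluorescent anti-GST detected bound protein, and masliner normalised the scans. E-scores for ungapped eight-base words, pooled with reverse complements, came from the Universal PBM Analysis Suite.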

| Sequence | PBM E-score |
| --- | --- |
| GAGTTCAA | 0.128 |
| AAGATCCC | -0.145 |
| AGGCGATC | -0.142 |
| ACCGCGAT | -0.0546 |
| GCGCCAAC | -0.0446 |
| ATTAAAAC | 0.26 |
| TCTTCTCA | -0.172 |
| CGCGGGAG | -0.317 |
| ACCAGAGT | 0.0585 |
| GATCCTGC | -0.0726 |
| AGAGTCCT | -0.277 |
| TACTGCCA | -0.0257 |
| CCCGAAGC | -0.203 |
| GACCCAGA | -0.168 |
| CACTTATG | 0.00149 |
| AGTGTACC | -0.201 |
| TAGCCCGA | -0.335 |
| CCGATGAA | -0.188 |
| CTTTTTTC | -0.134 |
| CTGGTTCC | -0.208 |
| GCCGGCGC | -0.136 |
| ACTACGAT | 0.0473 |
| CAGGAGCC | -0.225 |
| AGTGCGCA | -0.178 |
| ATGCGCCG | -0.109 |

| Sequence | PBM E-score |
| --- | --- |
| GTGGCACA | -0.174 |
| AGGTTGGC | -0.123 |
| ATGCGCTC | 0.0131 |
| ACACCTTA | 0.16 |
| TGATTCCA | -0.0656 |
| AATGCAGG | 0.0917 |
| ATTGTCGA | -0.0455 |
| ACATAAGA | 0.282 |
| CACATGTC | 0.22 |
| CGTATCAA | -0.0948 |
| GCACTTGA | 0.0926 |
| CTGATCAG | -0.0949 |
| AACAATAG | 0.0597 |
| ATCACGAC | -0.0357 |
| AGATTCTC | -0.064 |
| CAATTCCG | -0.136 |
| GACAGACC | -0.137 |
| AACAGCAG | 0.114 |
| AGATGCAA | -0.151 |
| AACAGACA | 0.189 |
| CATCTACC | -0.0147 |
| AACACGGA | 0.374 |
| ATAGTGCG | -0.138 |
| ACTAAGTA | 0.204 |
| CCGGCCAC | -0.256 |

| Sequence | PBM E-score |
| --- | --- |
| AAGGGCGC | 0.0554 |
| AGGTATGC | 0.119 |
| TAAATAAA | 0.262 |
| CAGCGTTA | -0.0524 |
| CGGACTTA | -0.056 |
| GACAGGTC | -0.23 |
| GCAGGCGA | -0.0959 |
| CCTTAAGC | -0.283 |
| ACTGGGGC | -0.307 |
| CGACGAGC | -0.00952 |
| TCGGAGAA | -0.145 |
| TCGAGCAA | 0.128 |
| AGGACATG | 0.181 |
| ATAGGCGA | -0.264 |
| GGCTGACC | -0.287 |
| AACAATCG | 0.15 |
| CGGTCTAC | 0.114 |
| GATAACCA | -0.14 |
| CGTTAGTA | 0.249 |
| CGTCCGAG | -0.136 |
| AACTAGTG | -0.101 |
| AGTCGGGG | -0.191 |
| CAATCCTA | -0.127 |
| AGACCTAG | -0.149 |
| GGCACGCA | -0.23 |

| Sequence | PBM E-score |
| --- | --- |
| CCCCTAGC | -0.325 |
| ACAGTAAC | 0.124 |
| ACGCGGGG | 0.0705 |
| CACTGCTA | 0.0812 |
| CTATCACC | -0.201 |
| AGACGCTC | -0.355 |
| AGATCCCA | -0.135 |
| CTTTACAA | 0.38 |
| CTTCTTGA | -0.0801 |
| CTCTGCGA | -0.0391 |
| AAATACGT | 0.246 |
| TATGTCGA | 0.327 |
| CTCGTTAC | 0.0938 |
| CCGACCCC | -0.294 |
| AAGGCTCC | -0.228 |
| CTTGTCTA | 0.147 |
| AACGAACG | 0.047 |
| AGATTGTC | -0.0562 |
| GGAGTCAA | -0.222 |
| ACCAGAGA | -0.144 |
| GCACTAAA | 0.0494 |
| GGCGAATA | -0.0919 |
| ACTGGACG | -0.103 |
| CAGCTGGA | 0.0103 |
| GTTAACGA | 0.248 |

| Sequence | PBM E-score |
| --- | --- |
| GCTAGGCC | -0.298 |
| AACTATGG | -0.0851 |
| AGTATTAT | 0.137 |
| AGAACTTC | -0.0854 |
| CTATTTGA | 0.059 |
| CCCACCCA | -0.227 |
| TAATGTCA | 0.155 |
| GAAGATAC | -0.0338 |
| AACTAGGA | -0.00347 |
| AGGACAGG | -0.27 |
| CAAAAATG | 0.0505 |
| CCTGACGC | -0.345 |
| AAAGGTTG | -0.227 |
| CAGCTAGA | 0.00712 |
| AACGTTTG | 0.00631 |
| CATAGAAC | -0.138 |
| GTGCTCTA | -0.0403 |
| AGATAACA | 0.351 |
| ATCGTAAG | 0.0715 |
| CCCGCGAA | -0.24 |
| CGTGCATC | -0.116 |
| ACTGCCGC | -0.208 |
| AGTAAAAC | 0.256 |
| GAAGATCC | -0.164 |
| CTTCCAAA | 0.0123 |

| Sequence | PBM E-score |
| --- | --- |
| CGGAGCTC | -0.165 |
| CCTTTTAC | 0.187 |
| AACAAATG | 0.169 |
| GGACATAC | -0.0257 |
| ACTTAGAT | 0.132 |
| ATGCAGAC | 0.0549 |
| TCAGGCAA | -0.136 |
| CCCATGAA | -0.163 |
| AGTGATAA | -0.0125 |
| AAAGCAAG | -0.0219 |
| GCTTAAGA | -0.113 |
| AAGATTCG | 0.0306 |
| AGCTAACG | 0.117 |
| CGTTTGCA | 0.11 |
| CAATGCTA | 0.0757 |
| CCGCTCGC | -0.192 |
| AGGCCAAA | -0.118 |
| CAAGGAAC | 0.157 |
| CTGTCGAA | 0.114 |
| GCAGGACA | -0.0748 |
| CTGTTACA | 0.281 |
| CCTCGCTA | -0.2 |
| ATATAAGA | 0.129 |
| AAATAAGA | 0.0456 |
| ACCCGTTA | 0.0329 |

| Sequence | PBM E-score |
| --- | --- |
| AAGCGCTG | -0.0761 |
| CTCAAGGA | -0.192 |
| ACCCATAG | -0.346 |
| TCAGCCGA | -0.137 |
| AAGACCTC | -0.258 |
| CCATAGCA | -0.145 |
| CGCCACAC | -0.0598 |
| ACCTCGTA | 0.126 |
| ATAAAACA | 0.264 |
| TAGGGGCA | -0.208 |
| CATACTCA | 0.168 |
| GCTCTTCA | -0.259 |
| CGGATGAA | 0.0601 |
| CTTTAAAC | 0.153 |
| AACCCGGC | 0.0143 |
| AGTCGGGA | -0.192 |
| GACTGCGC | -0.148 |
| ATCCATCG | -0.154 |
| ATGTAGAG | 0.376 |
| CCCTCTAG | -0.185 |
| CAAAATTG | 0.0272 |
| CACAATGA | 0.0518 |

From the supplement of paper PMC3334620
